Source: the antibiotic and cytotoxicity screens of Wong et al. (2023)
Some of the results follow.

Tests used:
HSkMC = human skeletal muscle cells; test: cytotoxicity call (relative viability < 0.9); settings: 10 µM
HepG2 = test: cytotoxicity call (relative viability < 0.9); settings: 10 µM
S. aureus RN4220 = test: growth inhibition call (relative growth <= 0.2); settings: 50 µM

Row | Structure (SMILES) | cytotoxicity call (HSkMC) | cytotoxicity call (HepG2) | growth inhibition call (S. aureus RN4220)
1 | O=C(NCCO)c1cc(C(=O)NCCO)cc(C(=O)NCCO)c1 | inactive | inactive | inactive
2 | C[C@@H]1CCCCO[C@H](CN(C)C(=O)Nc2cccc3ccccc23)[C@H](C)CN([C@H](C)CO)C(=O)c2cc(NS(=O)(=O)c3cccs3)ccc2O1 | active | active | inactive
3 | C[C@@H]1CCCCO[C@H](CN(C)Cc2ccc3c(c2)OCO3)[C@@H](C)CN([C@H](C)CO)C(=O)c2cc(NC(=O)Nc3cccc4ccccc34)ccc2O1 | inactive | inactive | inactive
4 | COC(=O)c1c2oc(c1C(=O)OC)C(=O)N[C@H](Cc1ccccc1)Cn1cc(nn1)CNC(=O)[C@H](Cc1ccccc1)NC(=O)N[C@@H](CO)CC2 | inactive | inactive | inactive
5 | COc1cccc2c1C(=O)c1c(O)c3c(c(O)c1C2=O)CC(O)(C(=O)CO)CC3OC1CC(N)C(O)C(C)O1 (centres undefined) | active | active | inactive
6 | C[C@@H]1CN([C@H](C)CO)C(=O)c2cc(NC(=O)Nc3ccc4c(c3)OCO4)ccc2O[C@@H](C)CCCCO[C@@H]1CN(C)C(=O)C1CCCCC1 | inactive | inactive | inactive
7 | CN1CCN(C(=O)C[C@@H]2CC[C@H]3[C@@H](COC[C@H](O)CN3C(=O)C3CC3)O2)CC1 | inactive | inactive | inactive
8 | O=C(NC(CO)C(O)c1ccc([N+](=O)[O-])cc1)C(Cl)Cl (centres undefined) | inactive | active | active
9 | CO[C@@H]1CN(C)C(=O)c2ccc(NC(=O)C3CCOCC3)cc2OC[C@H](C)N(Cc2cccnc2)C[C@H]1C | inactive | inactive | inactive
10 | C[C@@H](O)CN(CCN(C[C@@H](C)O)C[C@@H](C)O)C[C@@H](C)O | inactive | inactive | inactive
11 | C[C@H]1CN([C@@H](C)CO)S(=O)(=O)c2ccc(-c3cncnc3)cc2O[C@H]1CN(C)C(=O)c1cccc(F)c1 | inactive | inactive | inactive
12 | CC(C)NC(=O)N(C)C[C@@H]1OCCCC[C@H](C)Oc2ccc(NC(=O)Nc3ccc(C(F)(F)F)cc3)cc2C(=O)N([C@H](C)CO)C[C@@H]1C | active | inactive | inactive
13 | C[C@H](CO)N1C[C@H](C)[C@@H](CN(C)Cc2ccncc2)Oc2ccc(NC(=O)Cn3cnnn3)cc2CC1=O | inactive | inactive | inactive
14 | COc1ccc(CN(C)C[C@H]2Oc3c(NC(=O)c4ccc(-c5nccs5)cc4)cccc3C(=O)N([C@H](C)CO)C[C@@H]2C)cc1 | inactive | inactive | inactive
15 | C=C1C=[N+]([O-])N(c2ccc(C(=O)O)cc2)N1 | inactive | inactive | inactive
16 | C[C@H]1CN([C@@H](C)CO)C(=O)c2cc(C#CCc3ccccc3)cnc2O[C@@H]1CN(C)CC1CCOCC1 | inactive | inactive | inactive
17 | COc1ccc(NC(=O)N(C)C[C@@H]2Oc3ccc(NC(=O)Nc4ccc(C(F)(F)F)cc4)cc3C(=O)N([C@@H](C)CO)C[C@H]2C)cc1 | inactive | inactive | inactive
18 | CCCNC(=O)Nc1ccc2c(c1)OC[C@H](C)N(Cc1ccc(-c3ccccn3)cc1)C[C@@H](C)[C@H](OC)CN(C)C2=O | inactive | inactive | inactive
19 | COCC(=O)N[C@@H]1C=C[C@H](CC(=O)N2CCCCC2)O[C@H]1CO | inactive | inactive | inactive
20 | C[C@H]1CCCCO[C@@H](CN(C)Cc2ccc(C(=O)O)cc2)[C@@H](C)CN([C@@H](C)CO)C(=O)c2cc(NC(=O)Nc3cccc4ccccc34)ccc2O1 | inactive | inactive | inactive
21 | C[C@H]1CN([C@@H](C)CO)C(=O)c2cc(NC(=O)Cc3cn(C)c4ccccc34)ccc2O[C@H]1CN(C)C(=O)Nc1ccc(C(F)(F)F)cc1 | inactive | inactive | inactive
22 | C[C@H]1CC/C=C\[C@H]2O[C@@]34C=CCN(Cn5nnc6ccccc65)C(=O)[C@H]3N(CCCCCO)C(=O)[C@@H]4[C@@H]2C(=O)O1 | inactive | inactive | inactive
23 | C[C@@H]1CN([C@H](C)CO)C(=O)c2cc(NS(=O)(=O)c3cccs3)ccc2O[C@@H]1CN(C)Cc1ccncc1 | inactive | inactive | inactive
24 | COC(=O)CSc1nc(=O)c(C)n[nH]1 | inactive | inactive | inactive
25 | C[C@@H]1CCCCO[C@@H](CN(C)C(=O)Nc2ccc3c(c2)OCO3)[C@H](C)CN([C@H](C)CO)C(=O)c2cc(NC(=O)Cc3ccccc3)ccc2O1 | inactive | inactive | inactive
26 | C[C@@H]1CN([C@@H](C)CO)S(=O)(=O)c2ccc(C#CC3CCCC3)cc2O[C@H]1CN(C)C(=O)Cc1ccncc1 | inactive | inactive | inactive
27 | COC(=O)N/N=C/c1c[n+]([O-])c2ccccc2[n+]1[O-] | inactive | inactive | inactive
28 | OC[C@H]1CN(Cc2ccccc2)CCO1 | inactive | inactive | inactive
